In PubChem BioAssay AID488969 (Vanderbilt High Throughput Screening Facility, 2010) one finds z-score data, which are given here for 111 compounds.

The full ranking holds about 110,000 compounds; the median of “z-score” is about -0.1, and the highest 2% start at about 2. The list shows a part of the results. Calls of active or inactive are those of the source.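 Rule for the calls: active = z-score in the third read window above 3 or below -3; inactive = the rest.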

The target in the test is Metabotropic glutamate receptor 8 (Rattus norvegicus) (UniProt P70579). Put plainly: mGluR8 Gi/Go-coupled signaling modulation – cell-based, rat, thallium flux, HTS, primary screen (AID 488969). The following applies: HEK293 rat mGluR8, GIRK (G protein-gated inwardly rectifying potassium channel) thallium flux, FluoZin2; at 10 µM; stronger effect = higher value; submaximal glutamate (EC20) added with thallium.
Sequence of UniProt P70579 (P70579 whole entry, looked up): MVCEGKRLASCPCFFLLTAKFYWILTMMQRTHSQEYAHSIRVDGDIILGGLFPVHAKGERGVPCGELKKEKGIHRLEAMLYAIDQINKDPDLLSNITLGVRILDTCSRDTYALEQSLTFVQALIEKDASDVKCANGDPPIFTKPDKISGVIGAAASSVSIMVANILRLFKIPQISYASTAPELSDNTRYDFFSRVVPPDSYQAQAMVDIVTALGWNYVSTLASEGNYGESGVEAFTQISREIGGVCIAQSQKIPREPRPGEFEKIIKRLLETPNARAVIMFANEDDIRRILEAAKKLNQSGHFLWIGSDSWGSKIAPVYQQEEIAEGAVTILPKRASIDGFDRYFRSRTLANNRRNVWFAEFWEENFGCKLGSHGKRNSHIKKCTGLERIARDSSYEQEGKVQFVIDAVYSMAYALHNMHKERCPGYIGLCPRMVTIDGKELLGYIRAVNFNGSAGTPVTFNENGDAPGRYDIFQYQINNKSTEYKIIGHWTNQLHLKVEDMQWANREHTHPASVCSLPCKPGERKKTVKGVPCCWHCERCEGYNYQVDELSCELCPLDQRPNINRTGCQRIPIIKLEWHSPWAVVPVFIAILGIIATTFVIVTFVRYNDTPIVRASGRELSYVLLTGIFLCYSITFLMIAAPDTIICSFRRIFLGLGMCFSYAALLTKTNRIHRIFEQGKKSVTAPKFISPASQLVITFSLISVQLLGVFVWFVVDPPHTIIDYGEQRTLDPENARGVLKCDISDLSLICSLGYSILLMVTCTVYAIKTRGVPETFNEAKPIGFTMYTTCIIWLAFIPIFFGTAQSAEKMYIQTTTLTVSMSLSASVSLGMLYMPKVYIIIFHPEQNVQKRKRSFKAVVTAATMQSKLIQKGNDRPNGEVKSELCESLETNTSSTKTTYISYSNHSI
As for `CC1CN=C(N(C(=O)Nc2ccccc2)C(C)C)S1` (stereo unspecified), the z-score stood at 0.0225.

As for `COc1cc(C)c(Cl)cc1S(=O)(=O)NCCN1CCOCC1`, the z-score is 0.382.

Consider `O=C(NCCN1CCOCC1)c1cc(S(=O)(=O)NCCCN2CCCC2=O)ccc1Cl`, for which the z-score worked out at 0.23.

Take `COc1ccc(OC)c(C2=NOC(C(=O)NCc3ccco3)C2)c1` (stereo unspecified): the z-score was -0.014.

The compound `O=C(O)CCN1CC2([N+](=O)[O-])C=CC(=O)C([N+](=O)[O-])(C1)C2CC(=O)c1ccccc1` (stereo unspecified) gave a z-score of -0.227.

As to `CCC(c1nnnn1C1CCCCC1)N1CCN(C2CCCC2)CC1` (stereo unspecified), the z-score turned out to be 0.000677.

As to `CC(C)N1CC2(c3ccccc3)CN(C(C)C)CC(c3ccccc3)(C1)C2=O`, the z-score was -0.43.

As to `O=C(Nc1ccnc(-c2cccnc2)n1)c1ccc(Cl)cc1`, the z-score is -0.11.

`CCCN1C(=O)c2cc(C(=O)NCCc3cccc(C)c3)ccc2C1O` (stereo unspecified) showed a z-score of -0.0719.

Turning to `O=C(CNC1CCCCCC1)Nc1ccc(N2CCCC2)cc1`, the z-score was 2.66.

Take `O=C(COc1cccc(Cl)c1)N/N=C\c1cc2ccccc2nc1Cl`: the z-score is 0.267.

`COCC(=O)N(Cc1cc2cc(OC)ccc2[nH]c1=O)c1ccccc1OC`: the z-score was -0.0574.

`O=C(NNC(=O)C1CC2CCC1C2)c1sc2ccccc2c1Cl` (stereo unspecified): the z-score was -0.16.

For the compound `COC(=O)CSC1=C(C#N)C(c2ccccc2)CC(=O)N1` (stereo unspecified), the z-score is -0.164.

Compound `Cc1ccc(S(=O)(=O)Nc2ccccc2C=Nc2cccc(C)c2C)cc1` registered a z-score of -0.0798.

For the compound `Cc1cccc(NC(=O)C2(C)CC3c4ccccc4C2c2ccccc23)c1` (stereo unspecified), the z-score was -0.269.

Regarding `CCn1cc(C(=O)O)c(=O)c2cc(F)c(N3CCN(C(=O)Nc4ccccc4)CC3)cc21`, the z-score is -0.217.

On to `CCN1CN=C(NS(=O)(=O)c2ccc(C)cc2)NC1`, for which the z-score is -0.355.

In turn, `CCCCOC(=O)Nc1nc2ccccc2s1` returned a z-score of -0.291.

Turning to `Cc1ccc(-n2c(CCc3ccccc3)nnc2SCC(=O)NCc2ccccc2)cc1C`, the z-score amounted to 0.651.

Regarding `CC(C)N(C)CCOC(=O)c1ccccc1Br`, the z-score worked out at 0.0918.

The compound `CN(C)c1nc(Oc2ccc(=O)n(C)n2)nc(N2CCOCC2)n1` yielded a z-score of 0.191.

In turn, `O=C(Nc1ncc(Cc2ccccc2)s1)C1COc2ccccc2O1` (stereo unspecified) registered a z-score of 0.295.

As for `Cc1cc(C(=O)CSc2nnc3ccccn23)c(C)n1-c1ccccc1`, the z-score worked out at 0.237.

As to `COc1ccc(-c2nc(C#N)c(NCC3CCCO3)o2)cc1` (stereo unspecified), the z-score was -0.0444.

Compound `CCOC(=O)c1[nH]c(=O)[nH]c1CSCCO` returned a z-score of 0.124.

Take `COc1ccc2nc(/N=C/c3c(C)[nH]n(-c4ccc(C)cc4)c3=O)sc2c1`: the z-score was active: 9.39.

Turning to `O=C(NC1CCCCC1)c1ccccc1-c1ccccc1`, the z-score was -0.176.

Regarding `COc1ccc(Nc2oc(COc3ccc(C)cc3)nc2C#N)cc1`, the z-score was -0.083.

The compound `Cc1nc(C)c(/C(O)=C/c2nc3ccccc3oc2=O)s1` showed a z-score of 0.104.

For `COc1ccc(C(=O)ON=C2CCN(c3ccc([N+](=O)[O-])cc3)CC2)cc1`, the z-score is -0.868.

`O=C(CSc1nnnn1C1CCCC1)N1CCN(C(=O)c2ccco2)CC1` returned a z-score of -0.462.

`Cc1ccc(S(=O)(=O)c2c(C)nn(C(C)(C)C)c2OC(=O)c2ccco2)cc1` showed a z-score of -0.668.

In turn, `O=C(Oc1ccc(N2C(=O)CCC2=O)cc1)c1ccco1` yielded a z-score of -0.374.

Compound `CCOC(=O)N1CCN(C(=O)COc2cccc3c2CCN(Cc2ccc(F)cc2)C3=O)CC1` showed a z-score of -0.164.

`COc1cccc(OCCSc2nc(N)cc(N)n2)c1` gave a z-score of -0.00897.

With `CCc1[nH]nc2c1C1(C(=O)N(Cc3ccccc3)c3ccccc31)C(C#N)=C(N)O2` (stereo unspecified), the z-score amounted to 1.98.

Take `COc1cc(CNCc2ccccn2)ccc1OCC(=O)NC1CCCCC1`: the z-score was -0.253.

The compound `O=C(Cc1c(Sc2ccccc2)c2ccccc2n1Cc1ccccc1)NCCO` came in with a z-score of 0.12.

`N#Cc1ccsc1NC(=O)CSc1ncnc2ccccc12` returned a z-score of 1.01.

`CN1/C(=C\C=Nc2ccc3ccccc3c2)C(C)(C)c2ccccc21` came in with a z-score of -1.01.

In the case of `COc1cccc(-n2c(CN3CCN(Cc4ccccc4)CC3)nc3ccc([N+](=O)[O-])cc3c2=O)c1`, the z-score worked out at 0.48.

With `O=C(CNS(=O)(=O)c1ccc(Br)cc1)N1CCN(c2ccc(F)cc2)CC1`, the z-score is -0.0366.

In turn, `O=C(COC(=O)c1ccc2ccccc2c1)Nc1ncc(C(F)(F)F)cc1Cl` gave a z-score of -0.0886.

As for `O=C(NNC(=O)c1cccnc1SCc1cccc([N+](=O)[O-])c1)c1ccc(F)cc1`, the z-score was 0.33.

In the case of `O=S(=O)(c1ccc(Cl)cc1)N1CCC(N2CCOCC2)CC1`, the z-score amounted to 0.0841.

As for `CC(=O)c1cccc(NC(=O)CSc2nnc(-c3ccc(S(=O)(=O)N4CCCC4)cc3)o2)c1`, the z-score was -0.553.

`CC(=O)Nc1sc(N/N=C\c2ccccc2F)nc1-c1cccs1` yielded a z-score of -0.726.

In turn, `C=CCNC(=O)CCCCC(=O)NCC=C` showed a z-score of -0.0942.

As for `CN(C)S(=O)(=O)c1cc(C(=O)NCC2CCCO2)c(Cl)cc1Cl` (stereo unspecified), the z-score stood at 0.101.

With `CCSc1cc(C)nc2c(-c3ccccc3)c(C)nn12`, the z-score was -0.471.

For the compound `COCC(=O)Nc1ccccc1C(=O)NC(C)C`, the z-score was determined as 0.383.

Compound `C#CCOC(=O)c1ccccc1C(=O)OCC#C` yielded a z-score of -0.173.

The compound `CCOC(=O)c1c(CN(CC)CC)oc2cc(Br)c(O)cc12` displayed a z-score of -1.27.

Take `COc1ccc2nc(SC(C(=O)c3ccccc3)c3ccccc3)nc(C)c2c1` (stereo unspecified): the z-score stood at 0.574.

`Cc1nc(SCC(=O)c2cccc([N+](=O)[O-])c2)n[nH]1` showed a z-score of -0.159.

The compound `Cc1cc(C)n(C(=O)CCC2COc3ccccc3O2)n1` (stereo unspecified) returned a z-score of -0.753.

With `COc1ccc(C)cc1NC(=O)CSc1nc(SC)ns1`, the z-score is -0.526.

`Cc1ccc(C(=O)NNC(=O)C2CCCN(c3ncccn3)C2)cc1` (stereo unspecified) gave a z-score of 0.36.

Turning to `COC(=O)CCCCCCCCCCN1CCCCC1`, the z-score was -1.49.

Compound `Cn1c(=O)c2c(nc(N3CCCCCC3)n2CC(=O)c2ccccc2)n(C)c1=O` yielded a z-score of -0.257.

Consider `CCCCCCC(=O)Nc1nc(C)c(-c2csc(Nc3cccc(OC)c3)n2)s1`, for which the z-score was -0.0614.

On to `O=C(N/N=C1\CCc2ccccc21)c1ccccc1O`, for which the z-score was 0.0387.

In turn, `NC(=O)NC(=O)CSc1nc(C2CCCCC2)n(-c2ccccc2)n1` yielded a z-score of -0.264.

For `O=C(Nc1nc2ccccc2[nH]1)c1ccc(Cl)c(S(=O)(=O)N2CCCC2)c1`, the z-score was -0.459.

`COC(=O)c1ccc(Oc2nc(Nc3ccc(F)cc3)nc(N3CCCC3)n2)cc1` yielded a z-score of 0.419.

In turn, `CCOC(=O)C1CCN(S(=O)(=O)c2ccc(C)cc2)CC1` yielded a z-score of 0.0605.

Consider `C/C(CC(=O)Nc1ccc(Cl)cc1)=N\NC(=O)C(=O)NCCO`, for which the z-score amounted to 0.444.

Turning to `Cc1ccccc1Cn1c(=O)n(Cc2ccco2)c(=O)c2ccccc21`, the z-score was -0.362.

The compound `Cc1c(Br)cc(C(=O)NC2CCCCC2)c(C)c1C` registered a z-score of -0.949.

Consider `CC1Cc2ccccc2N1C(=O)C1CCN(S(=O)(=O)c2cccs2)CC1` (stereo unspecified), for which the z-score came to 0.0507.

On to `COc1ccc(NC(=O)c2ccc(C(=O)c3ccccc3)o2)cc1`, for which the z-score was found to be 0.267.

Compound `CCOC(=O)c1cc2c3ccccc3n(CC)c2nc1N` had a z-score of 1.33.

As for `COc1ccc(C(=O)n2nc(-c3ccco3)nc2SC)cc1OC`, the z-score was -0.997.

In the case of `COC(=O)COc1ccc2occ(C(C)=O)c2c1`, the z-score came to 0.456.

`COc1ccccc1N1C(=O)CC(N2CCc3ccccc32)C1=O` (stereo unspecified) returned a z-score of -0.042.

Consider `Cc1ccc2nc(NC(=O)CSCc3ccccc3)sc2c1`, for which the z-score is -0.525.

For the compound `O=C(c1ccc([N+](=O)[O-])cc1)N1CCN(Cc2ccccc2)CC1`, the z-score is -0.09.

The compound `CCOCCn1c(SCc2ccc(F)cc2)nc2c1c(=O)[nH]c(=O)n2C` displayed a z-score of 0.136.

`Cc1cc2c(=O)n(Cc3ccco3)c(SCC(=O)c3ccc(Cl)s3)nc2s1` showed a z-score of 0.0822.

For `CCOC(=O)C(NC(=O)c1cccc(Cl)c1)(OCc1ccc(F)cc1)C(F)(F)F` (stereo unspecified), the z-score was -0.0992.

`O=C(NCc1ccccc1)c1ccc(C2SCC(=O)N2Cc2ccccc2)cc1` (stereo unspecified) came in with a z-score of -0.875.

In the case of `N#C/C(=C\c1cccc(Oc2ccc(C(F)(F)F)cc2[N+](=O)[O-])c1)c1nc2ccccc2[nH]1`, the z-score came out at 0.00811.

On to `O=C(COc1ccc(Cl)cc1Cl)Nc1noc2ccccc12`, for which the z-score was active: 12.9.

As to `Cn1c(SCC(=O)NC(=O)NCc2ccco2)nnc1-c1ccccc1`, the z-score turned out to be 0.74.

`COc1cccc(N(CC(=O)Nc2ccccc2C)S(C)(=O)=O)c1` returned a z-score of -0.0477.

Take `Cc1c(C(=O)N2CCN(c3ccccn3)CC2)sc2ncnc(N3CCN(c4ccccc4)CC3)c12`: the z-score is -1.02.

Take `CC(=O)Nc1ccc(/C(C)=N/NC(=O)c2ccc(F)cc2)cc1`: the z-score was -0.116.

In turn, `COc1ccccc1C(=O)NCCn1ccc2ccccc21` displayed a z-score of 0.0274.

With `O=[N+]([O-])c1ccc(N/N=C/c2cn(Cc3ccc(F)cc3)c3ccccc23)nc1`, the z-score turned out to be 0.0783.

`CN1CCN(c2ccc(S(=O)(=O)N3CCCCC3)cn2)CC1` returned a z-score of -0.0159.

The compound `Cc1ccc(Cn2cccc(NC(=O)NC3CCCCC3)c2=O)cc1` had a z-score of -0.24.

Turning to `CCn1c(SCC(N)=O)nc2sc3c(c2c1=O)CCCC3`, the z-score is active: 8.59.

Take `Cc1c(Br)c(C(F)(F)F)nn1CC(=O)NCC1CCCO1` (stereo unspecified): the z-score turned out to be 0.71.

`CCOc1nc(NCCO)nc(NCCC2=CCCCC2)n1` returned a z-score of -0.166.

Compound `CCOC(=O)N1CCN(C(=O)Cn2ncc3c2-c2ccccc2OC3)CC1` showed a z-score of -0.102.

For `CCn1c(=NC(=O)c2ccco2)sc2cccc(F)c21`, the z-score was -2.12.

With `CCCc1cc(N2CCCC2)n2nc(C)c(-c3ccccc3)c2n1`, the z-score was -0.291.

The compound `CC(=O)Oc1c(C(=O)c2nnc(C)o2)c(=O)n(C)c2ccccc12` had a z-score of -0.074.

For the compound `CCCN1C(=O)SC(CC(=O)Nc2ccccc2C)C1=O` (stereo unspecified), the z-score is -0.0981.

With `Cc1ccc(N2C(=O)c3n[nH]c(C)c3C2c2ccccn2)cc1` (stereo unspecified), the z-score is -0.326.

The compound `N/C(=N\c1nc2c(c(=O)[nH]1)CCC2)Nc1ccccc1C(F)(F)F` had a z-score of -0.161.

In turn, `CC(=O)c1ccc(OC(=O)c2cccs2)cc1` returned a z-score of -0.705.

As to `CCOc1cc(C=O)ccc1OCCCN1C(=O)NC(C)(C)C1=O`, the z-score was -0.139.

For the compound `O=C(c1ccco1)N1CCN(C(c2ccc(Cl)cc2)c2nnnn2Cc2ccccc2)CC1` (stereo unspecified), the z-score was -0.4.

In turn, `COC(=O)c1cc2c(-c3ccccc3)c(C)c3ccccn3c-2c1C(=O)OC` yielded a z-score of -0.24.

`CC(Oc1ccc(C(=O)NC2CCCCC2)cc1)C(=O)O` (stereo unspecified) yielded a z-score of 1.07.

With `CCOC(=O)c1cccc(NC(=O)CN(C)S(=O)(=O)c2cnc[nH]2)c1`, the z-score was found to be 0.0312.

Compound `COC(=O)c1c(-c2ccc(C)cc2)csc1NC(=S)NC(=O)c1ccc(F)cc1` gave a z-score of -0.144.

As for `N/C(=N\OC(=O)C12CC3CC(CC(C3)C1)C2)c1ccccc1`, the z-score was -0.215.

Turning to `Cc1ccc(/C=N/N2CCN(c3ccncc3S(=O)(=O)N3CCCCC3)CC2)cc1`, the z-score turned out to be 0.486.
